# Source: publication PMC9911399, “Two distinct binding modes provide the RNA-binding protein RbFox with extraordinary sequence specificity”
# Numbering of substitutions follows the chain as printed; changes in the protein carry UniProt numbers. Some of the results follow.
# B1: GGGGUUG (DNA:RNA)
# RNA: GGGAGACCGGAAUUCAGAUUGUCCGGGGUUGUUAAAUCCCGUCGUAGCCACCA
# DNA 1: CAATCTGAATTCCGGTCTCCC
# DNA 2: TGGTGGCTACGACGGGATT
# B2: CCGCCCA (DNA:RNA)
# RNA: B1 RNA with G25C, G26C, G28C, U29C, U30C, G31A
# DNA 1: CAATCTGAATTCCGGTCTCCC
# DNA 2: TGGTGGCTACGACGGGATT
# B3: UAGUGCA (DNA:RNA)
# RNA: B1 RNA with G25U, G26A, G28U, U29G, U30C, G31A
# DNA 1: CAATCTGAATTCCGGTCTCCC
# DNA 2: TGGTGGCTACGACGGGATT
# B4: GCCUCCG (DNA:RNA)
# RNA: B1 RNA with G26C, G27C, G28U, U29C, U30C
# DNA 1: CAATCTGAATTCCGGTCTCCC
# DNA 2: TGGTGGCTACGACGGGATT
# B5: CUUAUAC (DNA:RNA)
# RNA: B1 RNA with G25C, G26U, G27U, G28A, U30A, G31C
# DNA 1: CAATCTGAATTCCGGTCTCCC
# DNA 2: TGGTGGCTACGACGGGATT
# B6: CUAGCUG (DNA:RNA)
# RNA: B1 RNA with G25C, G26U, G27A, U29C
# DNA 1: CAATCTGAATTCCGGTCTCCC
# DNA 2: TGGTGGCTACGACGGGATT
# B7: GAAACCC (DNA:RNA)
# RNA: B1 RNA with G26A, G27A, G28A, U29C, U30C, G31C
# DNA 1: CAATCTGAATTCCGGTCTCCC
# DNA 2: TGGTGGCTACGACGGGATT
# B8: AUAAAUG (DNA:RNA)
# RNA: B1 RNA with G25A, G26U, G27A, G28A, U29A
# DNA 1: CAATCTGAATTCCGGTCTCCC
# DNA 2: TGGTGGCTACGACGGGATT
# B9: CUACCAC (DNA:RNA)
# RNA: GGGAGACCGGAAUUCAGAUUGUCCCUACCACUUAAAUCCCGUCGUAGCCACCA
# DNA 1: CAATCTGAATTCCGGTCTCCC
# DNA 2: TGGTGGCTACGACGGGATT
# B10: UAAUUGU (DNA:RNA)
# RNA: B9 RNA with C25U, U26A, C28U, C29U, A30G, C31U
# DNA 1: CAATCTGAATTCCGGTCTCCC
# DNA 2: TGGTGGCTACGACGGGATT
# B11: GUAUUGG (DNA:RNA)
# RNA: B1 RNA with G26U, G27A, G28U, U30G
# DNA 1: CAATCTGAATTCCGGTCTCCC
# DNA 2: TGGTGGCTACGACGGGATT
# B12: UCGACCU (DNA:RNA)
# RNA: B9 RNA with C25U, U26C, A27G, C28A, A30C, C31U
# DNA 1: CAATCTGAATTCCGGTCTCCC
# DNA 2: TGGTGGCTACGACGGGATT
# B13: CCGUUAG (DNA:RNA)
# RNA: B1 RNA with G25C, G26C, G28U, U30A
# DNA 1: CAATCTGAATTCCGGTCTCCC
# DNA 2: TGGTGGCTACGACGGGATT
# B14: UAGUGCC (DNA:RNA)
# RNA: B9 RNA with C25U, U26A, A27G, C28U, C29G, A30C
# DNA 1: CAATCTGAATTCCGGTCTCCC
# DNA 2: TGGTGGCTACGACGGGATT
# B15: UCAGGAG (DNA:RNA)
# RNA: B9 RNA with C25U, U26C, C28G, C29G, C31G
# DNA 1: CAATCTGAATTCCGGTCTCCC
# DNA 2: TGGTGGCTACGACGGGATT
# B16: AAUAUCG (DNA:RNA)
# RNA: B1 RNA with G25A, G26A, G27U, G28A, U30C
# DNA 1: CAATCTGAATTCCGGTCTCCC
# DNA 2: TGGTGGCTACGACGGGATT
# B17: GUCUCGA (DNA:RNA)
# RNA: B9 RNA with C25G, A27C, C28U, A30G, C31A
# DNA 1: CAATCTGAATTCCGGTCTCCC
# DNA 2: TGGTGGCTACGACGGGATT
# B18: UACAGGA (DNA:RNA)
# RNA: GGGAGACCGGAAUUCAGAUUGUCCUACAGGAUUAAAUCCCGUCGUAGCCACCA
# DNA 1: CAATCTGAATTCCGGTCTCCC
# DNA 2: TGGTGGCTACGACGGGATT
# B19: AACUACU (DNA:RNA)
# RNA: B18 RNA with U25A, A28U, G29A, G30C, A31U
# DNA 1: CAATCTGAATTCCGGTCTCCC
# DNA 2: TGGTGGCTACGACGGGATT
# B20: AUUCAAC (DNA:RNA)
# RNA: B9 RNA with C25A, A27U, C29A
# DNA 1: CAATCTGAATTCCGGTCTCCC
# DNA 2: TGGTGGCTACGACGGGATT
# B21: CUGGCAA (DNA:RNA)
# RNA: B9 RNA with A27G, C28G, C31A
# DNA 1: CAATCTGAATTCCGGTCTCCC
# DNA 2: TGGTGGCTACGACGGGATT
# B22: ACGAGGG (DNA:RNA)
# RNA: B18 RNA with U25A, A26C, C27G, A31G
# DNA 1: CAATCTGAATTCCGGTCTCCC
# DNA 2: TGGTGGCTACGACGGGATT
# B23: UCCGCGC (DNA:RNA)
# RNA: B18 RNA with A26C, A28G, G29C, A31C
# DNA 1: CAATCTGAATTCCGGTCTCCC
# DNA 2: TGGTGGCTACGACGGGATT
# B24: CGAGUUA (DNA:RNA)
# RNA: B1 RNA with G25C, G27A, G31A
# DNA 1: CAATCTGAATTCCGGTCTCCC
# DNA 2: TGGTGGCTACGACGGGATT
# B25: GACCGCC (DNA:RNA)
# RNA: B18 RNA with U25G, A28C, G30C, A31C
# DNA 1: CAATCTGAATTCCGGTCTCCC
# DNA 2: TGGTGGCTACGACGGGATT
# B26: UUAUGGG (DNA:RNA)
# RNA: B18 RNA with A26U, C27A, A28U, A31G
# DNA 1: CAATCTGAATTCCGGTCTCCC
# DNA 2: TGGTGGCTACGACGGGATT
# B27: UCUAUUC (DNA:RNA)
# RNA: B1 RNA with G25U, G26C, G27U, G28A, G31C
# DNA 1: CAATCTGAATTCCGGTCTCCC
# DNA 2: TGGTGGCTACGACGGGATT
# B28: CACGCUA (DNA:RNA)
# RNA: B18 RNA with U25C, A28G, G29C, G30U
# DNA 1: CAATCTGAATTCCGGTCTCCC
# DNA 2: TGGTGGCTACGACGGGATT
# B29: CCUACUU (DNA:RNA)
# RNA: B9 RNA with U26C, A27U, C28A, A30U, C31U
# DNA 1: CAATCTGAATTCCGGTCTCCC
# DNA 2: TGGTGGCTACGACGGGATT
# B30: UACUAAA (DNA:RNA)
# RNA: B18 RNA with A28U, G29A, G30A
# DNA 1: CAATCTGAATTCCGGTCTCCC
# DNA 2: TGGTGGCTACGACGGGATT
# B31: UCCGAGG (DNA:RNA)
# RNA: B18 RNA with A26C, A28G, G29A, A31G
# DNA 1: CAATCTGAATTCCGGTCTCCC
# DNA 2: TGGTGGCTACGACGGGATT
# Biological target: T1, RBFOX1 RRM (Homo sapiens, UniProt Q9NWB1 109-208)
# T1 sequence: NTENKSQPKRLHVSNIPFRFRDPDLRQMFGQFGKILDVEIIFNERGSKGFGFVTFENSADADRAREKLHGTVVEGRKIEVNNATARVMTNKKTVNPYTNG
# Test: EMSA; HiTS-Eq, 1 nM pool, 10 min; buffer printed only for the single-RNA assays: 10 mM Tris pH 7.5, 150 mM NaCl, 3.4 mM EDTA, 0.001% NP-40, 30 C
# Conditions: tags: His6 N-terminal (pET28a); label: 5' 32P
# How it was run: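 Purified wild-type or mutant RbFox RRM at increasing concentrations was equilibrated with 1 nM of 5′-radiolabelled RNA carrying 7 randomized nucleotides for 10 min in 50 µL. Unbound RNA was separated by 8% native PAGE and sequenced. Relative association constants came from read-count changes of each RNA species compared with the control reaction, normalised to the cognate motif.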
row,Binder,binding signal
1,B1,0.0899 KA relative to UGCAUGU
2,B2,0.00911 KA relative to UGCAUGU
3,B3,0.018 KA relative to UGCAUGU
4,B4,0.00754 KA relative to UGCAUGU
5,B5,0.00089 KA relative to UGCAUGU
6,B6,0.0136 KA relative to UGCAUGU
7,B7,0.00221 KA relative to UGCAUGU
8,B8,0.00485 KA relative to UGCAUGU
9,B9,0.00189 KA relative to UGCAUGU
10,B10,0.0153 KA relative to UGCAUGU
11,B11,0.0141 KA relative to UGCAUGU
12,B12,0.00995 KA relative to UGCAUGU
13,B13,0.0111 KA relative to UGCAUGU
14,B14,0.0169 KA relative to UGCAUGU
15,B15,0.00682 KA relative to UGCAUGU
16,B16,0.0033 KA relative to UGCAUGU

row,Binder,binding signal
1,B17,0.0166 KA relative to UGCAUGU
2,B18,0.0027 KA relative to UGCAUGU
3,B19,0.000905 KA relative to UGCAUGU
4,B20,0.00205 KA relative to UGCAUGU
5,B21,0.013 KA relative to UGCAUGU
6,B22,0.00925 KA relative to UGCAUGU
7,B23,0.0109 KA relative to UGCAUGU
8,B24,0.00739 KA relative to UGCAUGU
9,B25,0.0115 KA relative to UGCAUGU
10,B26,0.00208 KA relative to UGCAUGU
11,B27,0.00485 KA relative to UGCAUGU
12,B28,0.00504 KA relative to UGCAUGU
13,B29,0.00306 KA relative to UGCAUGU
14,B30,0.00206 KA relative to UGCAUGU
15,B31,0.0114 KA relative to UGCAUGU
